Assay results taken from the supplement of paper PMC7335073.
The full ranking holds about 4,100 sequences; the median of “relative CpG methylation activity (normalised to average over all NNNCGNNN flanks)” is about 0.94, and the highest 2% start at about 1.9. This is one part of the list.

Target: DNMT3B catalytic domain (mouse) (UniProt O88509)
Experiment: relative CpG methylation activity (normalised to average over all NNNCGNNN flanks) (relative (1 = mean)); higher = more methylation of the central CpG
Conditions: system: in vitro, murine catalytic domain; CpG state: hemimethylated substrate pool; residues: 558-859
Outline: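 Pooled dsDNA substrates with a central CpG inside 10 random flanking nucleotides were methylated by murine DNMT3A or DNMT3B catalytic domain with 0.8 mM S-adenosyl-L-methionine in HEPES pH 7.5 buffer for 60 min at 37 °C. The DNA then went through proteinase K, BsaI-HFv2 digestion, hairpin ligation, bisulfite conversion and two-step PCR before Illumina sequencing. Relative methylation activity is the average methylation of each context with three flanking bases per side, divided by the mean over all contexts. Each experiment had two independent repeats.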

Sequence of UniProt O88509 (O88509 558-859): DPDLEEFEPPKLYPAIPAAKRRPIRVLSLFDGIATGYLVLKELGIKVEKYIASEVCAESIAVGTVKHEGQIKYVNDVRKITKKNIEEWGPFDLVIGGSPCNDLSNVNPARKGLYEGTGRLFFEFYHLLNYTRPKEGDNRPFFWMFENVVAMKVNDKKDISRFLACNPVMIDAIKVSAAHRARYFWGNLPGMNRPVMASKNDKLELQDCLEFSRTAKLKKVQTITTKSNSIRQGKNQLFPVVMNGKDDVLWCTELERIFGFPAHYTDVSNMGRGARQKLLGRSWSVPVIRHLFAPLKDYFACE

Going from TCCCGGCG to ACACGCAT, the “relative CpG methylation activity” value falls from 1.87 to 0.84.

Going from CATCGTTG to ATGCGCTG, the “relative CpG methylation activity” value rises from 0.266 to 0.604.

Compared with CTACGCGG, ACTCGGTG is lower in “relative CpG methylation activity” value: 1.44 for the first, 1.04 for the second.

Going from ACACGGAG to ATTCGGAA, the “relative CpG methylation activity” value falls from 0.823 to 0.809.

Compared with GGGCGCTG, CGCCGTGT is lower in “relative CpG methylation activity” value: 0.265 for the first, 0.205 for the second.

Compared with ATTCGGGG, TAACGCAC is lower in “relative CpG methylation activity” value: 1.58 for the first, 1.19 for the second.

Compared with CCACGCAG, ATGCGATC is higher in “relative CpG methylation activity” value: 0.819 for the first, 1.48 for the second.

Compared with TCGCGGCA, ACACGACT is higher in “relative CpG methylation activity” value: 1.5 for the first, 1.55 for the second.

Compared with CATCGCAA, TCACGGGA is higher in “relative CpG methylation activity” value: 0.511 for the first, 1.63 for the second.

First: AAGCGAGC
Second: TTGCGGCC
The “relative CpG methylation activity” value of the first is lower: 1.16 for the first, 1.43 for the second.

Going from CTACGCGA to GGACGACG, the “relative CpG methylation activity” value falls from 1.17 to 1.01.

Going from TTCCGTTA to AATCGTAA, the “relative CpG methylation activity” value falls from 0.945 to 0.31.

First: CCGCGACC
Second: CGGCGAAT
The “relative CpG methylation activity” value of the first is higher: 0.94 for the first, 0.68 for the second.

First: GGACGACC
Second: AAACGTTC
The “relative CpG methylation activity” value of the first is lower: 0.944 for the first, 1.12 for the second.

Compared with ATGCGAGG, ATACGCCT is higher in “relative CpG methylation activity” value: 1.27 for the first, 1.5 for the second.

First: ATGCGATA
Second: CACCGCCT
The “relative CpG methylation activity” value of the first is higher: 1.4 for the first, 0.622 for the second.

Compared with CTGCGTGA, GGGCGGCG is higher in “relative CpG methylation activity” value: 0.833 for the first, 1.15 for the second.

Going from ATACGTGT to CACCGATT, the “relative CpG methylation activity” value rises from 0.879 to 1.39.

Going from GTACGAGA to CCTCGAGT, the “relative CpG methylation activity” value falls from 1.79 to 1.5.

Going from TAACGGGC to TCTCGGTG, the “relative CpG methylation activity” value falls from 1.53 to 0.921.

Compared with GGACGATC, TTTCGTTA is lower in “relative CpG methylation activity” value: 1.74 for the first, 0.586 for the second.

Going from CGCCGAAT to GTTCGTAT, the “relative CpG methylation activity” value falls from 0.81 to 0.477.

Compared with TCACGTGA, AGGCGAGA is higher in “relative CpG methylation activity” value: 0.545 for the first, 0.85 for the second.

First: CCACGTCG
Second: TGCCGCAC
The “relative CpG methylation activity” value of the first is higher: 1.1 for the first, 0.36 for the second.

Going from TCGCGATG to TACCGGAA, the “relative CpG methylation activity” value falls from 0.762 to 0.571.

Compared with GAGCGGGC, TCTCGAGA is higher in “relative CpG methylation activity” value: 1.1 for the first, 1.96 for the second.

Going from CGCCGGTT to CGACGCTA, the “relative CpG methylation activity” value falls from 1.12 to 0.732.

Going from AGCCGAGG to CTACGATT, the “relative CpG methylation activity” value rises from 0.855 to 1.83.

First: GGGCGTCT
Second: GCTCGTCC
The “relative CpG methylation activity” value of the first is lower: 0.272 for the first, 0.759 for the second.

Going from ATACGAGC to TATCGCAT, the “relative CpG methylation activity” value falls from 1.87 to 0.37.

First: AGCCGCCG
Second: ATCCGGCC
The “relative CpG methylation activity” value of the first is lower: 0.444 for the first, 1.48 for the second.

Going from ATACGGCT to CAACGCCA, the “relative CpG methylation activity” value falls from 1.89 to 1.42.

First: TAGCGTTT
Second: TCTCGGCG
The “relative CpG methylation activity” value of the first is lower: 0.454 for the first, 1.57 for the second.

Compared with CCACGTAC, CAGCGAGA is lower in “relative CpG methylation activity” value: 1.38 for the first, 0.963 for the second.

First: CCACGGCC
Second: CAGCGACT
The “relative CpG methylation activity” value of the first is higher: 1.7 for the first, 0.883 for the second.

Going from GAGCGTTG to TTACGTAT, the “relative CpG methylation activity” value rises from 0.5 to 1.19.

Going from GGACGTGA to GTCCGGTC, the “relative CpG methylation activity” value rises from 0.369 to 1.78.

First: GGCCGATG
Second: CTACGCAC
The “relative CpG methylation activity” value of the first is lower: 0.926 for the first, 1.59 for the second.

Compared with CTCCGGTG, AGCCGGGG is lower in “relative CpG methylation activity” value: 1.69 for the first, 0.556 for the second.

First: GTTCGCAG
Second: GAACGGAC
The “relative CpG methylation activity” value of the first is lower: 0.628 for the first, 1.17 for the second.

Compared with AAACGGTG, GGCCGTGG is lower in “relative CpG methylation activity” value: 1.1 for the first, 0.0382 for the second.

Compared with CACCGGAG, GGACGGCC is higher in “relative CpG methylation activity” value: 0.628 for the first, 1.52 for the second.

Compared with ATTCGCGG, TCTCGCAT is lower in “relative CpG methylation activity” value: 0.818 for the first, 0.491 for the second.

Compared with TGTCGACC, AGTCGCCG is lower in “relative CpG methylation activity” value: 1.25 for the first, 0.957 for the second.

Compared with GCACGAAG, TTTCGGGA is higher in “relative CpG methylation activity” value: 1.11 for the first, 1.79 for the second.

Going from TTCCGACA to GAACGTAC, the “relative CpG methylation activity” value falls from 1.62 to 1.28.

Compared with AGCCGCAC, CATCGTTC is higher in “relative CpG methylation activity” value: 0.35 for the first, 0.911 for the second.

First: GCGCGGCT
Second: TAGCGTAA
The “relative CpG methylation activity” value of the first is higher: 1.31 for the first, 0.597 for the second.

First: TTTCGGCG
Second: CGTCGTTT
The “relative CpG methylation activity” value of the first is higher: 1.79 for the first, 0.292 for the second.

Compared with TCACGTTG, GCTCGGAT is higher in “relative CpG methylation activity” value: 0.752 for the first, 1.09 for the second.

Compared with AGTCGGTC, GGACGGTT is lower in “relative CpG methylation activity” value: 1.44 for the first, 0.784 for the second.

Compared with TGCCGTGG, AAACGCTG is higher in “relative CpG methylation activity” value: 0.121 for the first, 1.06 for the second.

Going from TGACGTGG to GTGCGATT, the “relative CpG methylation activity” value rises from 0.316 to 1.49.

Compared with CTTCGAGA, CTTCGGAT is lower in “relative CpG methylation activity” value: 1.95 for the first, 1.09 for the second.

First: TATCGGGG
Second: GCGCGCGT
The “relative CpG methylation activity” value of the first is higher: 1.24 for the first, 0.468 for the second.

Compared with GTGCGCGA, ACTCGACC is higher in “relative CpG methylation activity” value: 0.482 for the first, 1.18 for the second.

First: TATCGGTG
Second: AAGCGGGC
The “relative CpG methylation activity” value of the first is higher: 0.87 for the first, 0.837 for the second.

Going from AGACGGCA to AATCGCGA, the “relative CpG methylation activity” value falls from 1.56 to 0.413.

Going from CCACGCAC to TGCCGCTT, the “relative CpG methylation activity” value falls from 1.03 to 0.359.

Going from CCCCGCCG to AACCGCAG, the “relative CpG methylation activity” value falls from 1.02 to 0.172.

AACCGAGG and TCTCGGTA are the same in “relative CpG methylation activity” value: 1.09 for the first, 1.09 for the second.

Going from CGACGGGG to TTACGGAG, the “relative CpG methylation activity” value rises from 0.808 to 1.07.

Going from ACTCGCAT to TACCGAAT, the “relative CpG methylation activity” value rises from 0.531 to 1.18.

Compared with TGTCGTAA, CCACGGGT is higher in “relative CpG methylation activity” value: 0.233 for the first, 1.55 for the second.

Going from CGCCGACG to TGACGTTC, the “relative CpG methylation activity” value rises from 0.791 to 0.906.

Going from CATCGATA to CATCGGGC, the “relative CpG methylation activity” value falls from 1.88 to 1.77.

Going from GCGCGTTG to TTACGCCT, the “relative CpG methylation activity” value rises from 0.634 to 1.76.

Compared with GGGCGCAG, CAACGCCC is higher in “relative CpG methylation activity” value: 0.154 for the first, 1.54 for the second.

Compared with TCGCGGTT, TATCGTTT is lower in “relative CpG methylation activity” value: 0.854 for the first, 0.536 for the second.

Compared with TGCCGGGC, CTCCGTGC is higher in “relative CpG methylation activity” value: 0.926 for the first, 1.2 for the second.

Compared with CTTCGAAG, GATCGTGC is lower in “relative CpG methylation activity” value: 1.28 for the first, 0.318 for the second.

Going from ACTCGTCC to AGGCGCGT, the “relative CpG methylation activity” value falls from 0.74 to 0.179.

Compared with CCCCGGCC, TGACGACA is lower in “relative CpG methylation activity” value: 1.77 for the first, 1.03 for the second.

Going from CAGCGTGA to ACGCGAGG, the “relative CpG methylation activity” value rises from 0.267 to 1.04.

Going from AAGCGGTA to TTACGTTA, the “relative CpG methylation activity” value rises from 0.954 to 1.2.

First: GCGCGCGA
Second: AGTCGACT
The “relative CpG methylation activity” value of the first is lower: 0.459 for the first, 1.56 for the second.

First: GAACGAGT
Second: ATTCGACG
The “relative CpG methylation activity” value of the first is higher: 1.39 for the first, 1.07 for the second.

First: ATTCGCCT
Second: GAGCGTCC
The “relative CpG methylation activity” value of the first is higher: 1.03 for the first, 0.679 for the second.

Compared with TCTCGTCC, CTACGTAT is higher in “relative CpG methylation activity” value: 0.856 for the first, 1.44 for the second.

First: GTACGATC
Second: GCGCGATT
The “relative CpG methylation activity” value of the first is higher: 1.73 for the first, 1.06 for the second.

Going from CGACGGAT to ACGCGCGG, the “relative CpG methylation activity” value falls from 0.71 to 0.473.

Compared with CGTCGGTA, ACGCGGGT is lower in “relative CpG methylation activity” value: 1.03 for the first, 0.948 for the second.

Compared with TTTCGCTC, TACCGGCC is higher in “relative CpG methylation activity” value: 1.08 for the first, 1.52 for the second.

Going from TTCCGAAG to ACTCGCTC, the “relative CpG methylation activity” value falls from 1.32 to 0.857.

Going from GGCCGCCA to CCGCGTTA, the “relative CpG methylation activity” value rises from 0.368 to 0.612.

Compared with TCGCGAAG, CTCCGAAA is higher in “relative CpG methylation activity” value: 0.702 for the first, 1.57 for the second.
